About 360 (0.19%) of roughly 190,000 compounds were called active. The shares of active, inactive and inconclusive entries below differ from those in the screen.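 How the source made its calls: active means GTP binding activity at least 20 points away from 100%, either lowered or raised; inconclusive means signal likely due to the compound's own green fluorescence; inactive means the rest.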
target: Ras-related protein Rab-2A (Canis lupus familiaris) (UniProt P61105); test: Rab2 wt fluorescent GTP binding changes, either direction – biochemical, dog, bead-based flow cytometry, multiplex, primary screen (AID 760); settings: GST-Rab2 wt beads, Bodipy-GTP binding, at 10 µM;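 further: 0% = beads with excess unlabeled GTP and 100% = no-compound control corrected for plate trend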

GTP binding activity, inconclusive:
Cc1ccc(-c2c(C(=O)O)c(C(=O)O)c3n2CCC3)cc1 112%
CCCCOC(=O)c1ccc(NC(=S)NC(=O)c2c(Cl)cnn2C)cc1 96%
CCN(C(=O)COc1ncnc2ccc(Br)cc12)C1CCS(=O)(=O)C1 (stereo unspecified) 103%
O=C1C2C3CCCC3=C3CCCC3C2C(=O)N1c1cccc(Cl)c1 (stereo unspecified) 104%
CC(C)c1ccc(C(=O)NC2=NCCS2)cc1 516%
CCN(CC)Cc1c(C(=O)OC(C)C)nnn1-c1nonc1N 104%
Clc1ccc(CN=C2Nc3ccccc3CS2)cc1 103%
O=C(c1cccc(S(=O)(=O)N2CCCC2)c1)c1cccc(S(=O)(=O)N2CCCC2)c1 87%
COc1ccc(Oc2nnc(C)c3ccccc23)cc1 109%
S=c1[nH]nc(-c2ccc3ccccc3n2)n1-c1cc(Cl)cc(Cl)c1 93%
COc1ccc(-c2cc(C(F)(F)F)nc(S(=O)(=O)CCCC(=O)Nc3cc(C)on3)n2)cc1OC 92%
CCN(CC)S(=O)(=O)c1ccc2oc(C(=O)NC(C)C)c(C)c2c1 107%
COCCCn1c(Cc2csc(Nc3cccc(Cl)c3)n2)nnc1SCC(=O)OC1CCCCC1 89%
CC(C)Cn1cc(C(=O)N2CCN(c3ccccn3)CC2)c2c3ccccc3n(C)c2c1=O 109%
CCNC(=O)O/N=C(\C)c1sc(-c2ccccc2)nc1C 104%
O=c1c2ccccc2c(-c2n[nH]c(=S)o2)nn1Cc1ccccc1 91%
O=C(NCc1ccccc1)c1ccc(S(=O)(=O)N2CCCc3ccccc32)cc1 105%
CCOC1=NC(C(=O)O)c2ccccc2/C(=C(/C)Cl)N1 (stereo unspecified) 107%
COc1ccc(O)c(-c2c(-c3ccc(Cl)cc3)n[nH]c2C)c1 104%
O=C(NCc1ccccc1)c1cc(S(=O)(=O)N2CCOCC2)ccc1F 116%
CCOC(=O)CCCCC(=O)c1[nH]c(=O)[nH]c1CN1CCOCC1 101%
O=C(NC1CC1)C1=C[C@@H](c2ccccc2)C[C@@H](OCCCCO)O1 98%
COC(=O)c1ccc(C2/C(=C(/O)c3ccc(OC(C)C)cc3)C(=O)C(=O)N2c2cc(C)on2)cc1 (stereo unspecified) 93%
Brc1cc2c(cc1/C=N/Nc1nc(N3CCCC3)nc(N3CCOCC3)n1)OCO2 92%
CCOC(=O)c1cnc2c(-c3ccccc3)cnn2c1N 103%
Cc1ccc(Sc2nnc(-c3ccccc3)cc2C#N)cc1 340%
COCCCNS(=O)(=O)c1ccc(SC)cc1 100%
CCOC(=O)CSc1nc(C)c(C(C)=O)cc1C#N 107%
COc1ccc(CC(=O)NNC(=O)Cc2ccc(OC)cc2)cc1 95%
CC(=O)NC1C(=O)N=C(SCC(=O)NC(C)c2ccccc2)NC1=O (stereo unspecified) 102%
CCOc1nonc1C(=N)/C(C(C)=O)=C(\C)O 107%
O=C(Oc1cccc(-n2cnnn2)c1)c1ccco1 102%
O=C(Nc1ccc2c(c1)OCO2)C1CCCCN1S(=O)(=O)c1ccc(F)cc1 (stereo unspecified) 103%
O=C(NCc1cccs1)c1cccnc1C(=O)O 118%
Cn1c(N)c(C(=O)COC(=O)c2cc(-c3ccco3)nc3ccccc23)c(=O)n(C)c1=O 88%
Cc1ccc(OCC(=O)N/N=C/C=C/c2ccco2)cc1C 94%
CSc1nc2ccccc2n1Cc1cccc(F)c1 94%
c1ccc(-c2cnn3c(-c4ccccc4)c(-c4ccccc4)nc3n2)cc1 121%
O=c1c2cc(N3CCOCC3)ccc2[nH]c(=S)n1Cc1ccco1 108%
COc1ccc(-c2cc(C(F)(F)F)nc(-n3ccnc3C)n2)cc1 97%
CCc1cccc2c(/C=N/NC(=O)c3cccc(S(=O)(=O)Nc4ccccc4Cl)c3)c[nH]c12 90%
COc1ccc(C(=O)O/N=C2\CCCc3nonc32)cc1 113%
COc1ccc(C(CC(=O)NCC(OC)OC)NS(=O)(=O)c2ccc(Cl)cc2)cc1 (stereo unspecified) 93%
CC(C(=O)NCCN1CCOCC1)c1ccc([N+](=O)[O-])cc1 (stereo unspecified) 102%
C/C(=N/OC(=O)c1ccc(C)cc1)c1ccc(N2C(=O)C3CCCCC3C2=O)cc1 (stereo unspecified) 97%
c1ccc(-c2nc(NCc3cccnc3)c3oc4ccccc4c3n2)cc1 92%
CC1(C)Cc2c(sc3nc(SCC(=O)NCc4ccco4)n(-c4ccccc4)c(=O)c23)CS1 111%
COc1ccc(N2CCC(CNC(=S)Nc3cccc(OC)c3)C2)cc1 (stereo unspecified) 102%
Cn1nccc1C(=O)N1CCc2ccccc21 101%
CCOC(=O)/C(=C\Nc1ccccc1C(F)(F)F)Sc1ncc(C(F)(F)F)cc1Cl 101%
CC(C)CC(=O)Nc1nnn(C)n1 103%
O=C(NN1S(=O)(=O)c2ccccc2S1(=O)=O)c1ccc(Br)cc1 94%
Cc1nnsc1S(=O)(=O)Cc1ccccc1Cl 108%
O=C1c2cccc3cccc(c23)C(=O)N1CCCCCc1n[nH]c(=S)o1 79%
CCN(CC)c1ccc(/C=C(\C#N)C(=O)c2ccc(Br)cc2)cc1 170%
CC1CCC2(CC1)NC(=O)N(Cc1cccc(C(F)(F)F)c1)C2=O (stereo unspecified) 93%
CSCC[C@H](NC(=O)OC(C)(C)C)C(=O)N/N=C/c1cc2ccc(C)cc2nc1Cl 97%

GTP binding activity, active:
Cc1ccc(C(=O)COC(=O)c2ccc3c(c2)C(=O)N(c2cccc4ncccc24)C3=O)cc1 71%
COC(=O)c1cccc(NC(=O)c2nn(C)c(=O)c3ccccc23)c1 79%
O=c1c2ccc([N+](=O)[O-])cc2ncn1CCOc1ccccc1 79%
O=c1[nH]c(N/N=C\c2ccc3c(c2)OCO3)nc2ccccc12 77%

GTP binding activity, inactive:
COc1ccccc1-c1c(C)[nH]n2c(=O)c(Cc3ccccc3)c(C)nc12 96%
Cc1cc(C(=O)OCC(=O)NCc2ccco2)c(C)o1 98%
COc1cc2c(C)nc3c(c(C)nn3-c3ccccc3)c2cc1OC 83%
COc1ccccc1CCNC(=O)c1cc(-c2ccncc2)nc2ccc(Br)cc12 93%
CCn1cc(C(=O)OCC(=O)c2cc(C)n(-c3ccccc3)c2C)c(=O)c2ccc(C)nc21 90%
Cn1c(SCc2cccc([N+](=O)[O-])c2)nc2c(c1=O)SCC2 95%
CC(CN1CCOCC1)OC(=O)Cc1ccc(Cl)cc1 (stereo unspecified) 99%
Cn1c(N2CCOCC2)nc(-c2ccccc2)c1-c1ccccc1 100%
Cc1cc(=O)oc(C)c1C(=O)NC1CCCCCCC1 95%
Cc1cccc(CN2CCN(Cc3cnn(-c4ccccc4F)c3)CC2CCO)n1 (stereo unspecified) 99%
ClCC1NCC(c2ccccc2Cl)c2c1[nH]c1ccccc21 (stereo unspecified) 102%
Cc1ccc(C(=O)NCC(=O)OCC(=O)Nc2ccccc2C#N)s1 96%
CSc1cccc(NC(=O)Cc2ccccc2[N+](=O)[O-])c1 98%
N#CCC(=O)Nc1ccc(C(=O)NCc2ccccn2)cc1 100%
NC(=O)[C@@H]1CCOc2c(I)cc([N+](=O)[O-])cc2C(=O)N[C@@H](CO)C(=O)NCC(=O)N1 100%
COc1ccc(NC(=O)C(c2ccccc2)c2ccccc2)cn1 95%
CSc1ccccc1C(=O)C1CCCN(Cc2cnn(-c3ccccc3)c2)C1 (stereo unspecified) 97%
CN(CC(=O)O)S(=O)(=O)c1ccc2c(c1)NC(=O)CC(=O)N2 95%
COc1ccc(CN2CCNC(=O)C2CC(=O)NCCCn2cccn2)c(OC)c1 (stereo unspecified) 99%
OCCC1CN(Cc2cn[nH]c2C2CCCCC2)CCN1C1CCCCC1 (stereo unspecified) 96%
O=C(COC(=O)/C=C/c1cccc([N+](=O)[O-])c1)NCc1ccc2c(c1)OCO2 82%
O=C(Nc1ccccc1C(F)(F)F)N1CCN(c2ccccn2)CC1 95%
CCOC(=O)C1CCN(C(=O)c2cc3cc(Br)ccc3oc2=O)CC1 94%
COc1cccc(CC(NC(C)=O)C(=O)NC2CCN(S(=O)(=O)c3ccc4ccccc4c3)CC2)c1 (stereo unspecified) 102%
CC(=O)Nc1ccc(S(=O)(=O)N2CCN(Cc3cccc([N+](=O)[O-])c3)CC2)cc1 96%
CC(C)NC(=O)NC(=O)CN1C(=O)NC(Cc2c[nH]c3ccccc23)C1=O (stereo unspecified) 98%
CC(C)C1N(C(=O)CN2CCCCC2)CCN1S(=O)(=O)c1ccccc1 (stereo unspecified) 97%
COC(=O)c1ccc(CO/N=C/c2ccc(OC)cc2)o1 98%
CCn1c(CNC(=O)Cc2ccc(OC)cc2)nnc1SCC(=O)Nc1ccc(C(=O)O)cc1 99%
CCOC(=O)c1c(C)[nH]c(C(=O)COC(=O)/C=C/c2ccc(OCC#N)c(OC)c2)c1C 99%
